Test results as given in paper PMC12040169 (PLOS Biology, 2025).
Some of the results follow.

Tested on: T1, C. trachomatis L2/434/Bu expressing GFP (CTL2-GFP)
T1 construct: L2/434/Bu GFP intracellular growth in HeLa cells
Parameters: species or system HeLa; C. trachomatis total inclusion area by high-content imaging, normalised to DMSO
Conditions: total inclusion area; 28.5 h, 10 µM; inhibitor
In short: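 Imaging read-out: GFP inclusions and Hoechst nuclei captured by high-content imaging after fixation. Inclusion area/number = chlamydial growth; nuclei count = host cell viability. MIC calculated per earlier method.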

| Compound | % of control remaining |
| --- | --- |
| Cc1nn(C)cc1S(=O)(=O)N1CCC(c2cccc(Cc3ccccc3Cl)n2)CC1 [CBK286115] | 90.7637 |
| Cc1ccc2cc(COC(=O)c3ccc(N4CCOCC4)nc3)c(Cl)nc2c1 [CBK295336] | 106.867 |
| O=C(Cc1cc(F)cc(F)c1F)N1CCC(Sc2ccc(-c3ccccc3)cc2)CC1 [CBK131952] | 92.7559 |
| CC1CCc2c(sc3ncnc(NC4CCN(CC(N)=O)CC4)c23)C1 (stereo not drawn) [CBK305008] | 57.4016 |
| CCCC/C=C/c1cnc2[nH]c(=O)n(CCc3cccnc3)c2n1 [CBK064496] | 89.061 |
| OCCn1ncc2c(Nc3cccc(Cn4cncn4)c3)ncnc21 [CBK305965] | 39.1808 |
| COc1ccc(/C(N)=N/OC(=O)CN(C)S(=O)(=O)c2ccccc2)cc1 [CBK267683] | 78.2383 |
| Cc1cc2nc(N3CCN(C(=O)c4ccc(C#N)cc4)CC3)sc2cc1C [CBK287737] | 91.9472 |
| N#CCCCN1CCCN(c2cc(OCC3COc4ccccc4O3)ncn2)CC1 (stereo not drawn) [CBK083391T] | 72.9781 |
| COc1ccccc1CN(CC(C)(C)CN)C(=O)NCc1ccc(F)cc1 [CBK002470C] | 84.5239 |
| CC(=O)N1CC[C@@H](CC(=O)O)[C@@H](CC2=NCCc3ccc(C(C)(C)C)cc32)C1 [CBK289165] | 121.179 |
| CC1CCN(c2ccc([N+](=O)[O-])c(N3CCC(C)CC3)c2)CC1 [CBK001367] | 124.508 |
| CN(C)c1ccc(-c2ncnn2CC(F)(F)F)cn1 [CBK307215] | 79.5965 |
| O=[N+]([O-])c1ccc(N2CCN(CCO)CC2)cc1NCc1ccccc1 [CBK042200] | 98.9045 |
| Cc1ccc(CNc2nc3c(c(=O)[nH]c(=O)n3C)n2CC(O)COC(C)C)cc1 (stereo not drawn) [CBK139849] | 93.7337 |
| Cc1nc(N/C(=N/C(=O)c2ccccc2)NC(=O)c2ccccc2)nc2ccccc12 [CBK262529] | 90.9167 |
| COc1ccc(NC(=O)C2CC(=O)NC3=C2C(=O)CC(c2ccco2)C3)cc1 (stereo not drawn) [CBK270282] | 83.528 |
| O=c1[nH]c2ncc(-c3cccc4ncccc34)nc2n1Cc1ccccc1 [CBK064245] | 59.8429 |
| CC(=O)Nc1ccc(NC(=O)CCCC(=O)O)cc1 [CBK260984] | 85.7552 |
| N=C1/C(=C/c2cn(Cc3ccccc3)c3ccccc23)C(=O)N=C2SC(COc3ccccc3)=NN12 [CBK264150] | 95.3411 |
| Cc1cc(NCC2CCCO2)n2nc(C)c(-c3ccccc3)c2n1 (stereo not drawn) [CBK304531] | 59.0232 |
